Source: the supplement of paper PMC4967469
Lines with a small IC50 respond at low doses; where the fit passes the top or lowest dose, that dose stands as a limit. AUC sums up the same curve from the lowest dose to the 256-fold higher top dose; values near 1 show little effect. The top dose, if marked as inferred, was calculated from the reported fits.

Compound: O=C1NC(=NCc2cccs2)S/C1=C\c1ccc2ncccc2c1 [RO-3306]
Test: Viability of human cancer cell lines after 72 h of drug (GDSC screen)
Conditions: top dose 5 µM; top dose inferred
Description: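 Human cancer cell lines in 384-well plates, medium with 10% serum, drug for 72 h over a 256-fold dose range (nine 2-fold or five 4-fold steps up to the top dose). Adherent lines were fixed and stained with the nucleic acid dye Syto60, suspension lines read with resazurin; signal relative to control wells, capped at 0 and 100%. One two-parameter sigmoid per drug and line, fitted in a mixed model over all curves with the slope shared within a line.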

Cell Line | AUC | IC50 [µM]
HGC-27 (stomach, adherent) | 0.913 | > 5
HH (T-cell leukaemia, suspension) | 0.902 | > 5
HL-60 (acute myeloid leukaemia, suspension) | 0.968 | > 5
HLE (liver, adherent) | 0.952 | > 5
HN (head and neck, adherent) | 0.886 | 4.95
HO-1-u-1 (head and neck, adherent) | 0.988 | > 5
HOP-62 (lung adenocarcinoma, adherent) | 0.98 | > 5
HOS (osteosarcoma, adherent) | 0.959 | > 5
HSC-2 (head and neck, adherent) | 0.932 | > 5
HSC-39 (stomach, suspension) | 0.991 | > 5
HT55 (large intestine, adherent) | 0.99 | > 5
HT (B-cell lymphoma, suspension) | 0.989 | > 5
HT-3 (cervix, adherent) | 0.941 | > 5
HT-29 (large intestine, adherent) | 0.977 | > 5
HT-115 (large intestine, adherent) | 0.991 | > 5
HT-144 (melanoma, adherent) | 0.977 | > 5
HT-1080 (fibrosarcoma, adherent) | 0.935 | > 5
HT-1197 (bladder, adherent) | 0.983 | > 5
HT-1376 (bladder, adherent) | 0.954 | > 5
HUTU-80 (digestive system, adherent) | 0.982 | > 5
HeLa (cervix, adherent) | 0.977 | > 5
Hep 3B2_1-7 (liver, adherent) | 0.921 | > 5
Hey (ovary, adherent) | 0.91 | > 5
Hs633T (fibrosarcoma, adherent) | 0.971 | > 5
Hs683 (glioma, adherent) | 0.812 | 2.72
Hs746T (stomach, adherent) | 0.967 | > 5
Hs766T (pancreas, adherent) | 0.942 | > 5

Cell Line | AUC | IC50 [µM]
Hs939-T (melanoma, adherent) | 0.945 | > 5
Hs-578-T (breast, adherent) | 0.798 | 2.56
HuCCT1 (biliary tract, adherent) | 0.983 | > 5
HuH-7 (liver, adherent) | 0.958 | > 5
HuO9 (osteosarcoma, adherent) | 0.976 | > 5
HuO-3N1 (osteosarcoma, adherent) | 0.982 | > 5
HuP-T3 (pancreas, adherent) | 0.948 | > 5
HuP-T4 (pancreas, adherent) | 0.978 | > 5
IA-LM (large cell lung carcinoma, adherent) | 0.943 | > 5
IGR-1 (melanoma, adherent) | 0.99 | > 5
IGR-37 (melanoma, adherent) | 0.979 | > 5
IGROV-1 (ovary, adherent) | 0.976 | > 5
IHH-4 (thyroid, semi-adherent) | 0.873 | 3.24
IM-9 (myeloma, suspension) | 0.989 | > 5
IMR-5 (neuroblastoma, adherent) | 0.982 | > 5
IPC-298 (melanoma, adherent) | 0.988 | > 5
IST-MEL1 (melanoma, adherent) | 0.976 | > 5
IST-SL1 (small cell lung carcinoma, semi-adherent) | 0.897 | > 5
IST-SL2 (small cell lung carcinoma, suspension) | 0.989 | > 5
JAR (urogenital system, adherent) | 0.976 | > 5
JEG-3 (urogenital system, adherent) | 0.978 | > 5
JEKO-1 (B-cell lymphoma, suspension) | 0.97 | > 5
JHH-1 (liver, adherent) | 0.934 | > 5
JHH-2 (liver, adherent) | 0.977 | > 5
JHH-4 (liver, adherent) | 0.987 | > 5
JHH-7 (liver, adherent) | 0.98 | > 5
JHOS-2 (ovary, adherent) | 0.948 | > 5

Cell Line | AUC | IC50 [µM]
JHOS-3 (ovary, adherent) | 0.982 | > 5
JHOS-4 (ovary, adherent) | 0.947 | > 5
JHU-011 (head and neck, adherent) | 0.858 | 3.99
JHU-022 (head and neck, adherent) | 0.787 | 2.82
JHU-029 (head and neck, adherent) | 0.94 | > 5
JIMT-1 (breast, adherent) | 0.874 | > 5
JJN-3 (haematopoietic neoplasm, suspension) | 0.987 | > 5
JM1 (B-cell lymphoma, suspension) | 0.991 | > 5
JSC-1 (B-cell lymphoma, suspension) | 0.986 | > 5
JURL-MK1 (chronic myeloid leukaemia, suspension) | 0.985 | > 5
JVM-2 (lymphoid neoplasm, suspension) | 0.979 | > 5
JVM-3 (lymphoid neoplasm, suspension) | 0.941 | > 5
JiyoyeP-2003 (Burkitt lymphoma, suspension) | 0.985 | > 5
Jurkat (T-cell leukaemia, suspension) | 0.992 | > 5
K2 (melanoma, adherent) | 0.978 | > 5
K5 (thyroid, adherent) | 0.956 | > 5
KARPAS-45 (lymphoblastic leukaemia, suspension) | 0.986 | > 5
KARPAS-231 (B-cell leukaemia, suspension) | 0.951 | > 5
KARPAS-299 (anaplastic large cell lymphoma, suspension) | 0.948 | > 5
KARPAS-422 (B-cell lymphoma, suspension) | 0.974 | > 5
KARPAS-620 (haematopoietic neoplasm, suspension) | 0.974 | > 5
KARPAS-1106P (B-cell lymphoma, suspension) | 0.988 | > 5
KATOIII (stomach, semi-adherent) | 0.99 | > 5
KCL-22 (chronic myeloid leukaemia, suspension) | 0.991 | > 5
KE-37 (lymphoblastic leukaemia, suspension) | 0.993 | > 5
KELLY (neuroblastoma, adherent) | 0.926 | > 5
